Reference: the supplement of paper PMC10441789
The list shows a part of the results. Antibody binding of pooled human sera (four to six donors per pool; dilution not stated) to peptides of the Trypanosoma cruzi antigen TSSA on microarrays. Quantile-normalised fluorescence in arbitrary units, mean of duplicate arrays; higher = more binding. No active / inactive call. The uninfected pools are read here as the healthy donors of the same country. The strongest signals lie near the top of the scale (about 60,000).

Columns and labels:
Assay in all cases: antibody binding signal (normalised fluorescence) (arbitrary fluorescence units); higher = stronger serum antibody binding to peptide
[1] = tested on: pooled sera of chronic Chagas disease patients, Argentina
Method: (§1)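 Microarray of 15-residue peptides over residues 30-55 of Trypanosoma cruzi TSSAII, each with 1 to 10 substitutions at naturally variable positions, probed with one serum pool per country.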

[2] = tested on: pooled sera of chronic Chagas disease patients, Bolivia
Method: as §1

[3] = tested on: pooled sera of chronic Chagas disease patients, Brazil
Method: as §1

[4] = tested on: pooled sera of chronic Chagas disease patients, Colombia
Method: as §1

[5] = tested on: pooled sera of chronic Chagas disease patients, Mexico
Method: as §1

[6] = tested on: pooled sera of chronic Chagas disease patients, USA
Method: as §1

[7] = tested on: pooled sera of uninfected people, Argentina
Method: as §1

[8] = tested on: pooled sera of uninfected people, Bolivia
Method: as §1

[9] = tested on: pooled sera of uninfected people, Brazil
Method: as §1

[10] = tested on: pooled sera of uninfected people, Colombia
Method: as §1

[11] = tested on: pooled sera of uninfected people, Mexico
Method: as §1

[12] = tested on: pooled sera of uninfected people, USA
Method: as §1

| Sequence | antibody binding signal [1] | antibody binding signal [2] | antibody binding signal [3] | antibody binding signal [4] | antibody binding signal [5] | antibody binding signal [6] | antibody binding signal [7] | antibody binding signal [8] | antibody binding signal [9] | antibody binding signal [10] | antibody binding signal [11] | antibody binding signal [12] |
| --- | --- | --- | --- | --- | --- | --- | --- | --- | --- | --- | --- | --- |
| EKKAAAGETPSQSGA | 887 | 295 | 4510 | 431 | 320 | 2640 | 153 | 1330 | 130 | 759 | 308 | 1240 |
| KDNKPAAGETPSPSG | 418 | 278 | 11900 | 360 | 199 | 3640 | 296 | 495 | 171 | 281 | 470 | 1940 |
| KTAAGGTPSQPGASS | 1120 | 236 | 311 | 7900 | 749 | 1120 | 484 | 130 | 290 | 135 | 990 | 156 |
| DKKAATGGAPSPPGA | 875 | 253 | 429 | 1850 | 1000 | 1440 | 459 | 388 | 118 | 800 | 130 | 145 |
| SGKEKKTATGETPSP | 2290 | 510 | 2790 | 1220 | 1900 | 8770 | 525 | 229 | 102 | 120 | 184 | 558 |
| GTEKKTAAGETPSQS | 398 | 364 | 550 | 509 | 625 | 1730 | 109 | 548 | 176 | 633 | 218 | 101 |
| ENKAATGEAPSQSGA | 28800 | 43900 | 36700 | 200 | 147 | 34200 | 234 | 146 | 170 | 139 | 149 | 114 |
| KENKAAAGGAPSQPG | 171 | 248 | 7670 | 1260 | 235 | 1440 | 218 | 81.5 | 112 | 108 | 75.4 | 115 |
| TPPSGTDNKAATGGT | 33600 | 44300 | 51100 | 1220 | 7820 | 11200 | 899 | 538 | 2330 | 275 | 276 | 286 |
| PSGTENKTAAGETPS | 43500 | 24400 | 39800 | 1110 | 1940 | 8400 | 1040 | 510 | 226 | 375 | 345 | 445 |
| DNKPATGETPSQPGA | 26300 | 26000 | 36100 | 335 | 283 | 20000 | 271 | 531 | 518 | 259 | 1480 | 206 |
| STPPSGTDNKTAAGG | 35300 | 43600 | 49100 | 945 | 15200 | 25600 | 1130 | 716 | 1620 | 268 | 424 | 473 |
| TDKKTAAGGAPSPSG | 851 | 466 | 324 | 7650 | 873 | 796 | 241 | 112 | 219 | 208 | 283 | 168 |
| TEKKTATGGAPSPPG | 2280 | 377 | 1160 | 5130 | 1180 | 2130 | 385 | 459 | 121 | 168 | 466 | 289 |
| SGKEKKPATGETPSQ | 28600 | 2800 | 24800 | 1770 | 5540 | 20600 | 432 | 424 | 128 | 206 | 696 | 340 |
| TDKKPAAGEAPSQPG | 7860 | 17600 | 39100 | 274 | 210 | 16100 | 81.1 | 299 | 186 | 90.4 | 110 | 82.1 |
| GKEKKPAAGGAPSQP | 4220 | 247 | 1170 | 4140 | 3680 | 2950 | 114 | 96.1 | 121 | 107 | 84.2 | 276 |
| TPPSGKEKKPATGET | 17800 | 474 | 3270 | 744 | 24800 | 1320 | 719 | 1360 | 136 | 526 | 1290 | 1020 |
| TISTPPSGKDKKPAA | 24900 | 827 | 5440 | 227 | 47000 | 721 | 469 | 153 | 150 | 162 | 103 | 118 |
| STPPSGTEKKPAAGE | 47300 | 40900 | 44200 | 356 | 24200 | 12500 | 1420 | 508 | 911 | 208 | 206 | 241 |
| TPPSGTDKKPATGET | 25600 | 32200 | 43500 | 8430 | 31400 | 5150 | 572 | 467 | 464 | 355 | 5670 | 1600 |
| GTEKKPAAGGTPSQP | 799 | 199 | 582 | 6100 | 1060 | 1180 | 253 | 851 | 2750 | 140 | 1270 | 1060 |
| KKTAAGGTPSQPGAS | 230 | 357 | 211 | 4380 | 261 | 1420 | 355 | 165 | 404 | 249 | 279 | 243 |
| TEKKAATGGAPSPSG | 2180 | 357 | 1080 | 2940 | 2200 | 3330 | 470 | 1180 | 155 | 1100 | 241 | 238 |
| GTENKTATGETPSQS | 24300 | 5080 | 4770 | 3540 | 4150 | 7680 | 127 | 365 | 179 | 188 | 218 | 117 |
